Test results: publication PMC3563590
These are yes or no findings as the source states them, for the method shown. In cells and extracts the contact can be indirect. Some entries that bind do so weakly or less than the wild type.

Amino acid sequences for entries named in this document (tags omitted). A change or cut given only in a name is not applied to a line headed by its entry.
UniProt Q13526: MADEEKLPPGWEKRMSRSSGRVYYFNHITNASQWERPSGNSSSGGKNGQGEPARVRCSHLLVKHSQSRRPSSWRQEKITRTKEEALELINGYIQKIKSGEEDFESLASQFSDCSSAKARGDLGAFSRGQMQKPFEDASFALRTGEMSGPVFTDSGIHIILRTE
UniProt P03372: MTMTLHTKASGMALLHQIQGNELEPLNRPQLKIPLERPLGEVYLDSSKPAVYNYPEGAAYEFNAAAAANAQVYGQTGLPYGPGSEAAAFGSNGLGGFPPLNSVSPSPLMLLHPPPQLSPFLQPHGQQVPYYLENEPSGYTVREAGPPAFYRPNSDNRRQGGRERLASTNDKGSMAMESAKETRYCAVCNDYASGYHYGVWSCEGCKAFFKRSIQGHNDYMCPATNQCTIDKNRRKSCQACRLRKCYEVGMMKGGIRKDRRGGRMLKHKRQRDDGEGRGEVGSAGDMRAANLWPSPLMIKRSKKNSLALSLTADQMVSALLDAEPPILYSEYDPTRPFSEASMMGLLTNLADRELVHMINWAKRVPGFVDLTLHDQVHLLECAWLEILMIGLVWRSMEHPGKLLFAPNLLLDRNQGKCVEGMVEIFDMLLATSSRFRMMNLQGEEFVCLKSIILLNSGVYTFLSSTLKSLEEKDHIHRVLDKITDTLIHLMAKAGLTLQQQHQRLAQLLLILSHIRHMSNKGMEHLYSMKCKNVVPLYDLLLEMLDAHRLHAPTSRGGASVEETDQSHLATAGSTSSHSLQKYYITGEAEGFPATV

Tests used:
[1] = biological target: GST-Pin1 fusion protein (human) (UniProt Q13526); test: pull-down; 10 ug GST or GST-Pin1 on glutathione agarose beads with 1 mg lysate of 293FT cells transfected with His-tagged ERalpha domains, blot with anti-6xHis; also 293FT cells with shRNA against CDK1, CDK2 or CDK4 (less CD domain with shRNA CDK2); only the target purified
[2] = biological target: Peptidylprolyl isomerase 1 (Pin1), endogenous in MCF7 cells (human (endogenous in MCF7)) (UniProt Q13526); test: co-IP; MCF7 lysate (20 mM Tris HCl pH 8, 137 mM NaCl, 10% glycerol, 1% NP40, 2 mM EDTA), 1 mg protein, 4 ug anti-Pin1 overnight at 4 C, protein A/G beads, blot for ERalpha; serum-starved cells treated with estradiol or ethanol for 45 min
[3] = biological target: GST-Pin1 fusion protein (human) (UniProt Q13526); test: pull-down; 10 ug GST fusion protein on glutathione agarose beads with 1 mg MCF7 lysate, blot for ERalpha; cells without FBS and estradiol unless indicated; also cells treated with LY294002 for 16 hours, with or without FBS (marked reduction); only the target purified
[4] = biological target: GST-Pin1 fusion protein (human) (UniProt Q13526); test: pull-down; data not shown: GST-Pin1 with lysates of MCF7 cells treated with the Her2 inhibitor AG825 or the Mek1/2 inhibitor U0126; only the target purified

binding [1] | binding [2] | binding [3] | binding [4] | Substance
no binding |  |  |  | ERalpha His-EF (EF domain with C-terminal histidine tag) (from UniProt P03372 301-595) (domain or fragment)
 | binds | binds | binds | Estrogen receptor alpha (ERalpha), endogenous in MCF7 cells (from UniProt P03372 1-595)
no binding |  |  |  | ERalpha His-AB (domains A/B with C-terminal histidine tag) (from UniProt P03372 1-181) (domain or fragment)
binds |  |  |  | ERalpha His-CD (CD domain with C-terminal histidine tag) (from UniProt P03372 179-303) (domain or fragment)
